Source: ChEMBL document CHEMBL3046565, “Fungicidal and herbicidal activities of berberine related alkaloids” (2000)

System: Phytophthora infestans
Assay: Antifungal activity against Phytophthora infestans on potato plant assessed as disease control at 100 ppm after 24 hr

Question: With CCCCc1c2[n+](cc3c(OC)c(OC)ccc13)CCc1cc3c(cc1-2)OCO3.[Cl-] as the compound, how does the Activity read?
Answer: 11%

Question: With CCCCc1c2[n+](cc3c(OC)c(OC)ccc13)CCc1cc(OC)c(OC)cc1-2.[Cl-] as the compound, how does the Activity read?
Answer: 0%

Question: How did the Activity turn out when CCCc1c2[n+](cc3c(OC)c(OC)ccc13)CCc1cc(OC)c(OC)cc1-2.[Cl-] was run?
Answer: 0%

Question: With COc1ccc2c(c1OC)CN1CCc3cc4c(cc3[C@@H]1[C@@H]2C)OCO4.Cl as the compound, how does the Activity read?
Answer: 0%

Question: How did the Activity turn out when CCc1c2[n+](cc3c(OC)c(OC)ccc13)CCc1cc3c(cc1-2)OCO3.[Cl-] was run?
Answer: 5%

Question: For COc1ccc2c(O)c3[n+](cc2c1OC)CCc1cc2c(cc1-3)OCO2.[Cl-] [13-HYDROXYBERBERINE], which Activity is on record?
Answer: 0%

Question: CCCCCCc1c2[n+](cc3c(OC)c(OC)ccc13)CCc1cc(OC)c(OC)cc1-2.[Cl-] [13-HEXYLPALMATINE] was tested. Which Activity did it give?
Answer: 11%

Question: COc1ccc2c(c1OC)C[N+]1(C)CCc3cc4c(cc3C1=C2C)OCO4.[Cl-] (stereo not drawn) was tested. Which Activity did it give?
Answer: 0%

Question: CCOc1c(OC)ccc2cc3[n+](cc12)CCc1cc2c(cc1-3)OCO2.[Cl-] [9-O-ETHYLBERBERRUBINE] was tested. Which Activity did it give?
Answer: 0%

Question: For CCCc1c2[n+](cc3c(OC)c(OC)ccc13)CCc1cc3c(cc1-2)OCO3.[Cl-], which Activity is on record?
Answer: 0%

Question: With CCCCCCc1c2[n+](cc3c(OC)c(OC)ccc13)CCc1cc3c(cc1-2)OCO3.[Cl-] as the compound, how does the Activity read?
Answer: 47%

Question: How did the Activity turn out when COc1ccc2cc3[n+](cc2c1OC)CCc1cc2c(cc1-3)OCO2.[Cl-] [BERBERINE CHLORIDE] was run?
Answer: 0%

Question: For COc1ccc2c(c1OC)C[N@+]1(C)CCc3cc4c(cc3[C@@H]1[C@H]2O)OCO4.[Cl-], which Activity is on record?
Answer: 0%

Question: With COc1cc2c(cc1OC)-c1cc3ccc(OC)c(OC)c3c[n+]1CC2.[Cl-] [PALMATINE CHLORIDE] as the compound, how does the Activity read?
Answer: 0%

Question: How did the Activity turn out when COc1cc2c(cc1OC)-c1cc3ccc(OC)c(O)c3c[n+]1CC2.[Cl-] [PALMATRUBINE] was run?
Answer: 0%

Question: With COc1ccc2c(C)c3[n+](cc2c1OC)CCc1cc2c(cc1-3)OCO2.[Cl-] as the compound, how does the Activity read?
Answer: 0%

Question: How did the Activity turn out when COc1ccc2c(c1OC)CN1CCc3cc4c(cc3[C@@H]1[C@H]2O)OCO4.Cl was run?
Answer: 0%

Question: Which Activity does the source give for CCOc1c(OC)ccc2c(CC)c3[n+](cc12)CCc1cc2c(cc1-3)OCO2.[Cl-] [9-O-ETHYL-13-ETHYLBERBERRUBINE] here?
Answer: 0%

Question: Which Activity does the source give for COc1cc2c(cc1OC)-c1c(C)c3ccc(OC)c(OC)c3c[n+]1CC2.[Cl-] here?
Answer: 0%

Question: For COc1ccc2cc3[n+](cc2c1O)CCc1cc2c(cc1-3)OCO2 [BERBERRUBINE], which Activity is on record?
Answer: 0%

Question: Which Activity does the source give for CCc1c2[n+](cc3c(OC)c(OC)ccc13)CCc1cc(OC)c(OC)cc1-2.[Cl-] here?
Answer: 0%

Question: For COc1ccc2c(c1OC)C[N@@+]1(C)CCc3cc4c(cc3[C@@H]1[C@@H]2C)OCO4.[Cl-], which Activity is on record?
Answer: 0%

Question: Which Activity does the source give for COc1ccc2c(c1OC)C[N@@+]1(C)CCc3cc4c(cc3[C@@H]1[C@H]2O)OCO4.[Cl-] here?
Answer: 0%
